# In all, about 33,000 sequences were measured (“E-score (-0.5 to 0.5)”: median about -0.035, highest 2% from about 0.34 on). The list shows a part of the results.
# Target: T1, Mot3 (UniProt P54785)
# T1 sequence: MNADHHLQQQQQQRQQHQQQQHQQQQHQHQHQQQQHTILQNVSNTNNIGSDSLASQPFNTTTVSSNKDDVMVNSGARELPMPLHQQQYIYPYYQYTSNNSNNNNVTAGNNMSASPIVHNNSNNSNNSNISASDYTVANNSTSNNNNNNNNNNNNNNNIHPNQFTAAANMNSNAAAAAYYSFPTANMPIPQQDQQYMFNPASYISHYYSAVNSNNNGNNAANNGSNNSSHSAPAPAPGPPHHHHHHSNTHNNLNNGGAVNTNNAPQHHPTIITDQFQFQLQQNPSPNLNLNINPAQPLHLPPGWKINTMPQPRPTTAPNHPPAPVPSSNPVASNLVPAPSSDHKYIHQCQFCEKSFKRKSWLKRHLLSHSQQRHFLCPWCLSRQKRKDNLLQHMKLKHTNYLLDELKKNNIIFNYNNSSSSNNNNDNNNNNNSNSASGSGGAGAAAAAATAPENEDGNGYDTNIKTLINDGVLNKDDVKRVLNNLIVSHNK
# Experiment: PBM E-score (8-mer binding enrichment) (E-score (-0.5 to 0.5)); higher = stronger / more preferred TF binding; most listed sequences are background and not binding sites
# Settings: protein concentration: 200 nM; construct: GST-full length
# Method in brief: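 Each ungapped eight-base word and its reverse complement, pooled, received an E-score from the Universal PBM Analysis Suite. Underlying scans, normalised with masliner, recorded fluorescent anti-GST bound to GST-tagged yeast transcription factors. These were applied at about 100-200 nM to universal all-10-mer Agilent arrays double-stranded by primer extension.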
row,Sequence,PBM E-score
1,GTATGGTA,0.147
2,TATAGTCA,0.188
3,CCAGACTC,-0.324
4,AAGCTGAG,-0.0684
5,GAGAGCAC,-0.176
6,GACAGTAC,0.106
7,CGAGAACC,0.0688
8,CCCCTAGG,-0.297
9,AAGTTACG,0.0741
10,GCAGAAAC,0.0137
11,AGATCGCG,-0.184
12,GCTAGATA,-0.0892
13,GACACGCA,0.246
14,ACTAAAAG,-0.0421
15,CGCAGTGA,0.0209
16,CAGGACCC,-0.125
17,GTAGATAC,0.0401
18,CACCACTA,-0.0204
19,CCACGAAC,0.0291
20,ACATGACG,0.28
21,CCAGGACG,-0.0369
22,GCAGGTCC,-0.168
23,ATTGTAAC,0.111
24,GAGTGCAA,0.157
25,AAGACGGC,-0.265

row,Sequence,PBM E-score
1,ACCGTTCT,-0.0931
2,CTTAGTTC,-0.00563
3,GAATCTAC,0.0515
4,ATGTTATG,0.312
5,CGCAATGC,0.017
6,ACCACAGT,0.109
7,TCAAAGGA,-0.0249
8,CCATGATA,-0.147
9,AGAGACCT,-0.161
10,ATACTCAG,0.0553
11,GTGCACCA,-0.0778
12,ACATAAGC,0.201
13,ACTTTTAG,0.17
14,TGTTAACA,0.361
15,CATCTAGA,-0.184
16,GGATATAA,-0.00709
17,CCTACCCA,-0.0986
18,ATGGTCGC,-0.0225
19,CATTGGCC,-0.152
20,ACGTGTCG,0.24
21,GATTCGGA,0.052
22,GCTAGGAC,-0.122
23,TCCCTCAA,-0.191
24,AGATCACT,-0.129
25,GGTTCTTA,0.0492

row,Sequence,PBM E-score
1,ACACAGCC,0.219
2,GCTGCGAA,-0.0343
3,CGACACAA,0.166
4,AATCACAT,0.0933
5,AAGTACTT,-0.0409
6,AGGTCGTC,-0.0867
7,TACGTCTA,0.00485
8,CAGATAGC,-0.281
9,GGCCGGGA,-0.257
10,ACACACAT,0.332
11,GACTCTCA,-0.196
12,GCCTCGGA,-0.156
13,CAGTTGAG,-0.0885
14,AAAATGCC,-0.0585
15,AAATGGTA,0.144
16,CTTGATCC,-0.0987
17,GTTCACAA,0.129
18,CCTTAGAA,0.167
19,ATGGTTCA,0.116
20,ATTGACAC,0.29
21,AAATCTGC,0.00064
22,GCTCGCCC,-0.178
23,CGGAAGGA,-0.00256
24,ACTGATAC,-0.0642
25,AACCCGTA,-0.146

row,Sequence,PBM E-score
1,CTGAGCGC,-0.201
2,AAGGAGTC,-0.103
3,GATAACTA,-0.0117
4,CTAGCATA,-0.107
5,AAACCGGT,-0.0821
6,CCGGTTCA,-0.175
7,CGTCCGGC,-0.0134
8,GAAGAGGC,-0.165
9,ATCCAACC,-0.0825
10,AGCGTAGG,-0.12
11,GCGGTCCA,-0.202
12,GAGGTCAA,-0.207
13,GATGCAAA,-0.0866
14,CGAGCTAA,-0.0607
15,AGGCCTAT,0.146
16,GCTAATGA,-0.227
17,GCTGAGAC,-0.107
18,ACACTTGC,-0.00407
19,GTATAACA,0.261
20,AGACGGCT,-0.243
21,GCCGGGTA,-0.185
22,GCTGGAGA,-0.261
23,AACATCCT,0.0916
24,GGCGTGAC,0.017
25,GATGCCGA,-0.192

row,Sequence,PBM E-score
1,AATGTTTG,0.0834
2,GCCTAGTA,0.0658
3,CATTATAA,-0.0197
4,AGAGTTAC,-0.0569
5,GATGGAAC,-0.0944
6,ACAGTTGG,-0.103
7,AAGCATAG,-0.0156
8,ATATCGAG,-0.106
9,ACGAAGCA,0.0433
10,ATTATCGA,-0.109
11,GGGGTCGA,-0.0837
12,GACTGAGC,-0.19
13,CATCATAC,0.116
14,GCAAATAC,0.154
15,CCCTCCTA,-0.126
16,AATGCTCT,0.0141
17,CACCACGC,-0.211
18,CATAAGCC,-0.0209
19,CAACGAGG,0.118
20,CTGGCATA,-0.101
21,TCTAGTCA,-0.0732
22,GTACATGA,0.328
23,GAGGGTCA,-0.122
24,TGCTCAAA,-0.051
25,CAACGAGA,0.0672

row,Sequence,PBM E-score
1,CCGCGGTA,-0.105
2,GCTCTTAC,0.158
3,CCCATACG,-0.0692
4,TAGACAGA,-0.078
5,ACCGATTG,0.0542
6,GTAACGAA,0.00874
7,AACATGCT,0.308
8,AGATTCAA,0.0386
9,CAATATTG,0.154
10,AATTGTCA,0.139
11,CGGGGCCC,-0.185
12,AAAAGAGT,-0.00942
13,AGAGAGGC,-0.0233
14,CAGCCAGA,-0.3
15,GAAAGCTC,-0.0557
16,CGTATGCA,-0.0506
17,GAGATACA,0.0845
18,AGGATCAG,-0.0425
19,CTGCAATA,0.0641
20,TTCCAGAA,0.0149
21,CTTACCCA,-0.0718
22,GATAGGAA,0.197
23,TGTGACAA,-0.0111
24,GGATTACC,-0.0377
25,ACTTCAGC,-0.21

row,Sequence,PBM E-score
1,AAGCGTGG,-0.231
2,AAGAAATT,0.0402
3,GACCTACA,0.045
4,GACACGGA,0.22
5,CCAATACG,0.184
6,AGAACGCT,-0.186
7,AAAGACGT,0.0165
8,CATGGTAG,0.0641
9,GATACAAA,0.113
10,CAGCGGGG,-0.285
11,ATCCTAAG,-0.178
12,ACAGCAAC,0.0245
13,GTTTCCTA,0.411
14,CATTGTAC,0.193
15,CGTATCAC,0.0157
16,AAAACGGA,0.0813
17,AGTATACA,0.192
18,ACTGTTTG,0.193
19,GACTTAAA,-0.0284
20,ACTCTCTC,-0.127
21,ATGCGTTG,0.0859
22,GCATCCAC,-0.101

# — the supplement of paper PMC3334620
